# Laboratory results published in PMC11924945, “The human CD47 checkpoint is targeted by an immunosuppressive Aedes aegypti salivary factor to enhance arboviral skin infectivity” (Science immunology, 2024).
# T1: Aedes aegypti Nest1 (neutrophil-stimulating factor 1), recombinant, amino acids 22 to 316 (A. aegypti, UniProt Q17F11 22-316, biotin (BirA500 kit) in the yeast library screen)
# T1 construct: Nest1 (AAEL003601), 34-kDa salivary protein of A. aegypti, amino acids 22 to 316 (without its secretion signal peptide; H7 leader of the vector pEZT-Dlux upstream); also called rNest1; Nest1-his; source: Expi293 cells, transfected, purified from supernatant (Ni-NTA; for SPR also SEC); not shown: AviTag, C-terminal, kept; 8X His, C-terminal, kept
# T1 sequence: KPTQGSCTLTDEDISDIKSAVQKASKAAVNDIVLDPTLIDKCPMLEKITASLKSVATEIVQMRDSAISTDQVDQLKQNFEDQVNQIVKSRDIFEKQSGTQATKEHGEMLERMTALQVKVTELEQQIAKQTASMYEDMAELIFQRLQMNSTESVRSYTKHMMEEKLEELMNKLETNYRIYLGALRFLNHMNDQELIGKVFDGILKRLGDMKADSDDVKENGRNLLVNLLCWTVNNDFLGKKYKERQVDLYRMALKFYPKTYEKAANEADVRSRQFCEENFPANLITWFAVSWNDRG
# B1: human CD47 ([…]) tagged with human immunoglobulin G1 Fc (N297A) (Fc fusion)
# chain: not shown
# modifications: biotin (NHS-biotin, 10-fold molar excess) in SPR
# notes: CD47, human, […]; Purification is told for the SPR sample; also called CD47-Fc; source: Expi293 cells, purified (protein A agarose, SEC)
# Molecular target: T1, Aedes aegypti Nest1 …
# Test: SPR; BIAcore T200, Biotin CAPture kit; biotinylated CD47-Fc immobilised at low density, serial dilutions of Nest1, single-cycle kinetics, 120 s association, 60 s dissociation, HBS-P+ buffer, 25°C, 30 μl/min, 1:1 Langmuir model
# Details: both partners purified
binder,measurement,value
B1,Kd,~38 nM
